Reference: US20240392035A1 (DENALI THERAPEUTICS, published 2024)

B1: anti-HER2_DIV/DII_scFv_2 (bispecific antibody, human IgG1, kappa)
heavy 1: EVQLVESGGGLVQPGGSLRLSCAASGFTFTDYTMDWVRQAPGKGLEWVADVNPNSGGSIYNQRFKGRFTLSVDRSKNTLYLQMNSLRAEDTAVYYCARNLGPSFYFDYWGQGTLVTVSSASTKGPSVFPLAPSSKSTSGGTAALGCLVKDYFPEPVTVSWNSGALTSGVHTFPAVLQSSGLYSLSSVVTVPSSSLGTQTYICNVNHKPSNTKVDKKV[human IgG1 Fc with changes cut from this listing]
heavy 2: [about 100 residues cut from this listing]GGGGSGGGGSGGGGSGGGGS[about 120 residues cut from this listing][about 250 residues cut from this listing]
light: DIQMTQSPSSLSASVGDRVTITCKASQDVSIGVAWYQQKPGKAPKLLIYSASYRYTGVPSRFSGSGSGTDFTLTISSLQPEDFATYYCQQYYIYPYTFGQGTKVEIKRTVAAPSVFIFPPSDEQLKSGTASVVCLLNNFYPREAKVQWKVDNALQSGNSQESVTEQDSKDSTYSLSSTLTLSKADYEKHKVYACEVTHQGLSSPVTKSFNRGEC
B2: Bispecific Protein #3 (bispecific antibody, human IgG1, kappa)
heavy 1: [about 100 residues cut from this listing]GGSGGGSGGGSGGGSGGGSG[about 120 residues cut from this listing][about 250 residues cut from this listing]
heavy 2: EVQLVESGGGLVQPGGSLRLSCAASGFTFTDYTMDWVRQAPGKGLEWVADVNPNSGGSIYNQRFKGRFTLSVDRSKNTLYLQMNSLRAEDTAVYYCARNLGPSFYFDYWGQGTLVTVSSASTKGPSVFPLAPSSKSTSGGTAALGCLVKDYFPEPVTVSWNSGALTSGVHTFPAVLQSSGLYSLSSVVTVPSSSLGTQTYICNVNHKPSNTKVDKKV[human IgG1 Fc with changes cut from this listing]
light: DIQMTQSPSSLSASVGDRVTITCKASQDVSIGVAWYQQKPGKAPKLLIYSASYRYTGVPSRFSGSGSGTDFTLTISSLQPEDFATYYCQQYYIYPYTFGQGTKVEIKRTVAAPSVFIFPPSDEQLKSGTASVVCLLNNFYPREAKVQWKVDNALQSGNSQESVTEQDSKDSTYSLSSTLTLSKADYEKHKVYACEVTHQGLSSPVTKSFNRGEC
B3: Bispecific Protein #7 (bispecific antibody, human IgG1, kappa, L234A L235A)
heavy 1: EVQLVESGGGLVQPGGSLRLSCAASGFTFTDYTMDWVRQAPGKGLEWVADVNPNSGGSIYNQRFKGRFTLSVDRSKNTLYLQMNSLRAEDTAVYYCARNLGPSFYFDYWGQGTLVTVSSASTKGPSVFPLAPSSKSTSGGTAALGCLVKDYFPEPVTVSWNSGALTSGVHTFPAVLQSSGLYSLSSVVTVPSSSLGTQTYICNVNHKPSNTKVDKKVEPKSCDKTHTCPPCPAPEAAGGPSVFLFPPKPKDTLMISRTPEVTCVVVDVSHEDPEVKFNWYVDGVEVHNAKTKPREEQYNSTYRVVSVLTVLHQDWLNGKEYKCKVSNKALPAPIEKTISKAKGQPREPQVYTLPPSRDELTKNQVSLWCLVKGFYPSDIAVEWESYGTEWSNYKTTPPVLDSDGSFFLYSKLTVSKEEWQQGFVFSCSVMHEALHNHYTQKSLSLSPGKGGGGGSGGGGS[about 120 residues cut from this listing]
heavy 2: EVQLVESGGGLVQPGGSLRLSCAASGFTFTDYTMDWVRQAPGKGLEWVADVNPNSGGSIYNQRFKGRFTLSVDRSKNTLYLQMNSLRAEDTAVYYCARNLGPSFYFDYWGQGTLVTVSSASTKGPSVFPLAPSSKSTSGGTAALGCLVKDYFPEPVTVSWNSGALTSGVHTFPAVLQSSGLYSLSSVVTVPSSSLGTQTYICNVNHKPSNTKVDKKVEPKSCDKTHTCPPCPAPEAAGGPSVFLFPPKPKDTLMISRTPEVTCVVVDVSHEDPEVKFNWYVDGVEVHNAKTKPREEQYNSTYRVVSVLTVLHQDWLNGKEYKCKVSNKALPAPIEKTISKAKGQPREPQVYTLPPSRDELTKNQVSLSCAVKGFYPSDIAVEWESNGQPENNYKTTPPVLDSDGSFFLVSKLTVDKSRWQQGNVFSCSVMHEALHNHYTQKSLSLSPGGGGGGSGGGGS[about 100 residues cut from this listing]
light: DIQMTQSPSSLSASVGDRVTITCKASQDVSIGVAWYQQKPGKAPKLLIYSASYRYTGVPSRFSGSGSGTDFTLTISSLQPEDFATYYCQQYYIYPYTFGQGTKVEIKRTVAAPSVFIFPPSDEQLKSGTASVVCLLNNFYPREAKVQWKVDNALQSGNSQESVTEQDSKDSTYSLSSTLTLSKADYEKHKVYACEVTHQGLSSPVTKSFNRGEC

Columns and labels:
human TfR on cells = human TfR on cells (human, UniProt P02786); assay: cell-based or functional assay
[1] = target: HER2 on HER2-overexpressing tumor cell lines (UniProt P04626); assay: cell-based or functional assay
[2] = target: T1, recombinant human TfR apical domain (human, UniProt P02786 198-378); assay: SPR (Biacore), protein captured on anti-human Fab chip, human TfR apical domain injected, 1:1 Langmuir fit
T1 construct: also called recombinant TfR apical domain; transferrin receptor protein 1
Description: Affinities of the bispecific proteins were measured by SPR using a Biacore T200 or a Biacore 8K. Biacore™ Series S CM5 sensor chips were immobilized with monoclonal mouse anti-human IgG (Fc) antibody for HER2 affinity measurements or mouse anti-human Fab for TfR affinity measurements (human antibody or Fab capture kit from GE Healthcare). Serial 3-fold dilutions of analyte (recombinant HER2 extracellular domain or recombinant TfR apical domain) were injected at a flow rate of […]. Each sample was analyzed using a 3-minute association and a 10-minute dissociation for HER2 extracellular domain binding and a 40-second association and a 3-minute dissociation for human TfR apical domain binding. After each injection, the chip was regenerated using 3 M MgCl₂ or 50 mM glycine at pH 2.0. Binding response was corrected by subtracting the RU from a flow cell capturing an irrelevant IgG at similar density. A 1:1 Languir model of simultaneous fitting of kon and koff was used for kinetics analysis. […] The two constructs are described below.

T1 sequence (P02786 198-378 limits assumed): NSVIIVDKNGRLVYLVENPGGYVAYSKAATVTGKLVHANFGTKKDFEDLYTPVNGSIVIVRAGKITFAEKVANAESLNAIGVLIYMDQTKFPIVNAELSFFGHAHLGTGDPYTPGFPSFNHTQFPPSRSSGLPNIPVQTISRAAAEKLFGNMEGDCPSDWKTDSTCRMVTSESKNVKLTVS

Row | Binder | maximum growth inhibition, OE19 cells, WST-1 assay (human TfR on cells) | maximum growth inhibition, OE19 cells, WST-1 assay [1] | Kd [2]
1 | B1 | ~80% | ~80% | 
2 | B2 |  |  | 450 nM
3 | B3 |  |  | 350 nM
